# Laboratory results as given in the supplement of paper PMC5919970.
# Where a name gives a salt, the structure may show the parent alone. Over roughly 2,000 compounds, “fractional viability relative to vehicle” has its median near 0.91; the lowest 2% begin near 0.045. The list shows a part of the results.
# Tested on: TYKNU
# Assay: fractional viability relative to vehicle; TYKNU is a high-grade serous ovarian cancer line; higher = less growth inhibition
# Conditions: 72 h
# In short: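 TYKNU control cells or lentiCRISPRv2 knockout derivatives were seeded at 500 cells per well into drug-stamped 384-well plates holding a ~2100-compound library at 2 or 10 μM, in duplicate. Cells were grown at 37 °C in 5% CO2 in RPMI 1640 with 10% FBS, and drug treatment lasted 72 h. Viability was read by Cell Titer Glo luminescence. Duplicate treatment wells were averaged and normalised to duplicate control wells from the same plate position.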
# [1] = 2uM, genotype: DNM1L knockout (sgDNM1L #1)
# [2] = 2uM, genotype: sgCTRLA1 (non-targeting control)
# [3] = 10uM, genotype: DNM1L knockout (sgDNM1L #1)
# [4] = 10uM, genotype: sgCTRLA1 (non-targeting control)
SMILES,fractional viability [1],fractional viability [2],fractional viability [3],fractional viability [4]
Cc1nc(C(=O)NCC(=O)O)c(O)c2ccc(Oc3ccccc3)cc12,0.864,0.978,0.868,0.86
CCCCCCNC(=O)n1cc(F)c(=O)[nH]c1=O [Carmofur],1.26,0.993,0.738,0.668
CC(O)c1cc(C(=O)N[C@@H](C)Cn2ccc(-c3ccc(C#N)c(Cl)c3)n2)n[nH]1 (some centres undefined),0.762,0.897,0.94,0.769
Nc1nc(=O)n([C@@H]2CS[C@H](CO)O2)cc1F [Emtricitabine],0.891,1.04,0.911,1.01
COc1ccc(Cl)cc1C(=O)NCCc1ccc(S(=O)(=O)NC(=O)NC2CCCCC2)cc1 [Glyburide],0.858,1.02,0.843,0.976
CCc1cccc(CC)c1NC(=O)N1Cc2[nH]nc(NC(=O)c3ccc(N4CCN(C)CC4)cc3)c2C1,0.538,0.711,0.359,0.462
CC[C@@H]1C(=O)N(C)c2cnc(Nc3ccc(C(=O)N[C@H]4CC[C@H](N5CCN(CC6CC6)CC5)CC4)cc3OC)nc2N1C(C)C [Volasertib (BI 6727)],1.01,1.12,0.895,1.07
COC(=O)N[C@@H](C)CNc1nccc(-c2cn(C(C)C)nc2-c2cc(Cl)cc(NS(C)(=O)=O)c2F)n1,0.402,0.475,0.213,0.341
CC#C[C@]1(O)CC[C@H]2[C@@H]3CCC4=CC(=O)CCC4=C3[C@@H](c3ccc(N(C)C)cc3)C[C@@]21C [Mifepristone],0.896,1.16,0.66,1.02
CN1CCN(C(=O)c2cc3cc(Cl)ccc3[nH]2)CC1,1.13,1.23,0.961,1.16
CC(=O)OCC(=O)[C@@]1(O)CC[C@H]2[C@@H]3CCC4=CC(=O)C=C[C@]4(C)[C@H]3[C@@H](O)C[C@@]21C [Prednisolone Acetate],1.3,1.12,1.15,1.09
COc1ccc(CNc2nc(N3CCC[C@H]3CO)ncc2C(=O)NCc2ncccn2)cc1Cl [Avanafil],0.972,1.12,0.788,0.943
COC(=O)N[C@H](C(=O)N1CC2(CC2)C[C@H]1c1nc(-c2ccc3c(c2)C(F)(F)c2cc(-c4ccc5[nH]c([C@@H]6[C@H]7CC[C@H](C7)N6C(=O)[C@@H](NC(=O)OC)C(C)C)nc5c4)ccc2-3)c[nH]1)C(C)C [Ledipasvir (GS5885)],0.605,0.873,0.485,0.534
CC[C@H](c1ccc(O)cc1)[C@@H](CC)c1ccc(O)cc1 [Hexestrol],0.952,1.12,0.811,0.966
Cc1c(Nc2ncccc2C(=O)O)cccc1C(F)(F)F [Flunixin Meglumin],1.02,1.06,0.844,1.09
CC(ONC(=O)c1cc(C(F)(F)F)cc(C(F)(F)F)c1)C(=O)Nc1ccc(Cl)cc1 (centres undefined),0.763,1,0.808,0.687
OC[C@@H](O)CN1CCN(c2ccccc2)CC1 [Levodropropizine],0.967,1.05,0.814,1.04
N#CC1(c2ccc(NC(=O)c3cccnc3NCc3ccncc3)cc2)CCCC1 [Apatinib],0.974,1.17,0.801,0.98
NCCc1ccc(O)c(O)c1 [Dopamine HCl],0.312,0.46,0.153,0.181

SMILES,fractional viability [1],fractional viability [2],fractional viability [3],fractional viability [4]
Cn1cnc2c(F)c(Nc3ccc(Br)cc3Cl)c(C(=O)NOCCO)cc21 [Selumetinib (AZD6244)],0.519,0.519,0.359,0.278
Nc1nc(N)c2nc(-c3cccc(O)c3)c(-c3cccc(O)c3)nc2n1,1.12,1.21,0.829,1.05
CN(Cc1cc(Br)cc(Br)c1N)C1CCCCC1 [Bromhexine HCl],0.973,0.983,0.877,1.06
C[C@H](CS)C(=O)N1CCC[C@H]1C(=O)O [Captopril],1.02,1.18,0.968,1.08
Cn1c(N2CCCCS2(=O)=O)nc(C(=O)NCc2ccc(F)cc2)c(O)c1=O,0.975,1.2,0.9,1.14
O=C(c1ccccc1)c1ccc2nc(NC(=O)c3csc(C4CCN(c5ncnc6ccsc56)CC4)n3)[nH]c2c1,0.749,1.15,0.481,0.328
C[N+](C)(C)CC(O)CC(=O)[O-] (racemic) [DL-Carnitine HCl],0.978,1.07,0.892,1.11
CCS(=O)(=O)N1CCN(c2ccc(Nc3ncc(C(N)=O)c(NC4CC4)n3)cc2)CC1,1.08,0.892,0.331,0.263
C[N+](C)(C)C[C@H](O)CC(=O)[O-] [L-carnitine],1.12,1.14,0.8,1.07
Cc1ccc(C(=O)Cn2c3c(sc2=N)CCCC3)cc1 [Pifithrin-_ (PFT_)],0.969,1.1,0.714,1.11
CC(C)(C)NC(=O)[C@H]1CC[C@H]2[C@@H]3CC[C@H]4NC(=O)C=C[C@]4(C)[C@H]3CC[C@]12C [Finasteride],1.01,1.12,0.851,1.06
C=CC[N+]1([C@H]2C[C@H]3[C@@H]4CC[C@H]5C[C@H](O)[C@@H](N6CCOCC6)C[C@]5(C)[C@H]4CC[C@]3(C)[C@H]2OC(C)=O)CCCC1 [Rocuronium Bromide],0.905,1.05,0.906,0.882
C=C1CC[C@H](O)C/C1=C/C=C1\CCC[C@]2(C)[C@@H]([C@H](C)/C=C/[C@H](C)C(C)C)CC[C@@H]12 [Vitamin D2],1.19,1.02,0.175,0.739
Nc1nc(N)c2nc(-c3ccccc3)c(N)nc2n1 [Triamterene],0.971,0.889,0.816,1.01
C=C1C(=O)O[C@H]2[C@H]1CC/C(C)=C/CC[C@@]1(C)O[C@@H]21 [(-)-Parthenolide],0.336,0.595,0.0299,0.0264
COc1ccc(CCC(=O)Nc2nc3ccc(Cl)cc3s2)cc1OC,0.985,1.16,0.657,0.999
CCCCOc1ccc(C(=O)CCN2CCCCC2)cc1 [Dyclonine HCl],0.901,1.06,0.908,0.917
CC(C)(C)CC(C)(C)c1ccc(OCCOCC[N+](C)(C)Cc2ccccc2)cc1 [Benzethonium Chloride],0.655,0.806,0.0602,0.0999
O=[N+]([O-])c1cn2c(n1)OC[C@@H](OCc1ccc(OC(F)(F)F)cc1)C2,1.21,1.09,1.25,1.12

SMILES,fractional viability [1],fractional viability [2],fractional viability [3],fractional viability [4]
Cn1nnc2c(C(N)=O)ncn2c1=O [Temozolomide],1.08,0.965,0.764,0.836
O=c1cc[nH]c(=O)[nH]1 [Uracil],0.771,1.16,0.881,1.03
COc1ccc(-c2cc(=O)c3c(OC)c(OC)c(OC)c(OC)c3o2)cc1OC [Nobiletin],1.1,1.2,1.11,1.11
CCOC(=O)N1c2ccc(C(F)(F)F)cc2[C@@H](N(Cc2cc(C(F)(F)F)cc(C(F)(F)F)c2)C(=O)OC)C[C@H]1CC [Torcetrapib],0.889,1.07,0.695,0.991
Cc1ccc(C(=O)Nc2cccc(C(F)(F)F)c2)cc1Nc1nc(-c2cccnc2)nc2c1cnn2C,0.712,0.928,0.164,0.207
CO[C@H]1C[C@@H]2CC[C@@H](C)[C@@](O)(O2)C(=O)C(=O)N2CCCC[C@H]2C(=O)O[C@H]([C@H](C)C[C@@H]2CC[C@@H](OC(=O)C(C)(CO)CO)[C@H](OC)C2)CC(=O)[C@H](C)/C=C(\C)[C@@H](O)[C@@H](OC)C(=O)[C@H](C)C[C@H](C)/C=C/C=C/C=C/1C,0.493,0.339,0.277,0.207
CCC[C@@H]1C[C@@H](C(=O)N[C@@H]([C@H]2O[C@H](SC)[C@H](O)[C@@H](O)[C@H]2O)[C@@H](C)O)N(C)C1 [Lincomycin HCl],1.24,1.04,1.13,1.01
N#Cc1c(Oc2ccc(F)c(NC(=O)Cc3cccc(C(F)(F)F)c3)c2)ccc2nc(NC(=O)C3CC3)sc12,0.201,0.232,0.15,0.154
Cc1ccc(CNc2ncnc3ccc(-c4ccc(CO)o4)cc23)o1,1.19,1.06,0.871,0.761
CN1C(C(=O)Nc2ccccn2)=C(O)c2sc(Cl)cc2S1(=O)=O [Lornoxicam],1.04,1.22,0.894,0.996
CC12CC3CC(C)(C1)CC(N)(C3)C2 [Memantine HCl],1.05,1.03,0.94,0.86
O=C(O)c1ccc(C=C2SC(=S)N(c3cccc(C(F)(F)F)c3)C2=O)cc1,0.838,1.13,0.727,0.961
COc1ccc(-c2cc(=O)c3c(OC)c(OC)c(OC)c(OC)c3o2)cc1 [Tangeretin],1.09,1.29,0.961,1.24
Cc1cccc(-c2nn3c(c2-c2ccnc4ccc(C(N)=O)cc24)CCC3)n1,1.06,1.18,0.899,1.15
CC(C)c1nc(CN(C)C(=O)N[C@@H](CCN2CCOCC2)C(=O)N[C@H](CC[C@H](Cc2ccccc2)NC(=O)OCc2cncs2)Cc2ccccc2)cs1 [Cobicistat (GS-9350)],0.929,1.12,0.591,0.934
Cc1cc(C)nc(NS(=O)(=O)c2ccc(NC(=S)NC(=O)COc3ccc(Br)cc3Cl)cc2)n1,1.05,1.04,0.706,1.08
O=C(Nc1cccnc1)N1CCC(Cc2cccc(Oc3ccc(C(F)(F)F)cn3)c2)CC1,0.943,1.1,0.557,0.527
CCCCc1oc2ccccc2c1C(=O)c1cc(I)c(OCCN(CC)CC)c(I)c1 [Amiodarone HCl],0.996,1.07,0.736,0.965
